Source: the supplement of paper PMC4604168 (melanoma cell lines)
Some of the results follow. Repeats are few or missing, and single values can be far off.

Columns and labels:
Experiment in all cases: cell count relative to DMSO control; melanoma cells; higher = more viable cells
Conditions in all cases: library dose: low library concentration; 72 h
COLO792 = test system: COLO792
COLO800 = test system: COLO800
COLO829 = test system: COLO829
G361 = test system: G361
IPC-298 = test system: IPC-298
IST-MEL1 = test system: IST-MEL1
LB2518-MEL = test system: LB2518-MEL
LOXIMVI = test system: LOXIMVI
MEL-HO = test system: MEL-HO
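Further: cell number obtained by counting DAPI-stained nuclei in high-throughput microscope images with image analysis software, screen run in 1,536-well plates.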

| Compound | cell count (COLO792) | cell count (COLO800) | cell count (COLO829) | cell count (G361) | cell count (IPC-298) | cell count (IST-MEL1) | cell count (LB2518-MEL) | cell count (LOXIMVI) | cell count (MEL-HO) |
| --- | --- | --- | --- | --- | --- | --- | --- | --- | --- |
| COCC[n+]1c2c(n(Cc3cnccn3)c1C)C(=O)c1ccccc1C2=O + CC1(C)NC(=O)N(c2ccc([N+](=O)[O-])c(C(F)(F)F)c2)C1=O [nilutamide] (first compound 0.0004 µM, partner dose 1 µM) | 92.7% | 38.5% | 83.1% | 105% | 87.4% | 75.2% | 89.7% | 76.1% | 82.1% |
| Clc1ccc(Nc2nnc(Cc3ccncc3)c3ccccc23)cc1 [vatalanib] + C=CCn1c(=O)c2cnc(Nc3ccc(N4CCN(C)CC4)cc3)nc2n1-c1cccc(C(C)(C)O)n1 [MK1775] (first compound 2 µM, partner dose 0.02 µM) | 82% | 82.2% | 92% | 90.3% | 94.1% | 95% | 88.9% | 82.9% | 91% |
| OCc1c[nH]c2ccccc12 [Indole-3-carbinol] + CCc1ccc(CCOc2ccc(CC3SC(=O)NC3=O)cc2)nc1 [pioglitazone] (first compound 0.8 µM, partner dose 2 µM) | 95.6% | 79.9% | 114% | 106% | 95.1% | 94.2% | 88.9% | 80.2% | 91.8% |
| Cn1c(Nc2ccc(C(F)(F)F)cc2)nc2cc(Oc3ccnc(-c4ncc(C(F)(F)F)[nH]4)c3)ccc21 + Cc1ccc(NC(=O)c2cccc(N(C)C)c2)cc1NC(=O)c1ccc(O)cc1 [ZM336372] (first compound 0.08 µM, partner dose 2 µM) | 42.5% | 82.1% | 102% | 59.1% | 51% | 83.4% | 42.3% | 92.3% | 70.7% |
| Nc1cccc2c1CN(C1CCC(=O)NC1=O)C2=O (stereo not given) [lenalidomide] + O=C(CCCCCCC(=O)Nc1ccccc1)NO [vorinostat] (first compound 1 µM, partner dose 0.08 µM) | 104% | 77% | 97.1% | 89.7% | 115% | 109% | 95.9% | 66.1% | 102% |
| OCc1c[nH]c2ccccc12 [Indole-3-carbinol] + NCC(=O)Nc1ccc(-n2nc(C(F)(F)F)cc2-c2ccc3c(ccc4ccccc43)c2)cc1 [OSU03012] (first compound 0.8 µM, partner dose 1 µM) | 91.1% | 88.7% | 90.8% | 107% | 85.6% | 89.1% | – | 104% | 101% |
| COCC[n+]1c2c(n(Cc3cnccn3)c1C)C(=O)c1ccccc1C2=O + COc1cc(Nc2ncc(F)c(Nc3ccc4c(n3)NC(=O)C(C)(C)O4)n2)cc(OC)c1OC [Tamatinib] (first compound 0.0004 µM, partner dose 0.4 µM) | 68.3% | 29.3% | 91.3% | 98% | 74.2% | 84.8% | 67.4% | 67.6% | 83.4% |
| Clc1ccc(Nc2nnc(Cc3ccncc3)c3ccccc23)cc1 [vatalanib] + Cn1cc(/C=C2\C(=O)Nc3cccnc32)c2ccccc21 [GW441756] (first compound 2 µM, partner dose 0.4 µM) | 89.1% | 86.8% | 94.8% | 78.7% | 90.7% | 94.6% | 79.1% | 70.9% | 92.3% |
| OCc1c[nH]c2ccccc12 [Indole-3-carbinol] + C=CCn1c(=O)c2cnc(Nc3ccc(N4CCN(C)CC4)cc3)nc2n1-c1cccc(C(C)(C)O)n1 [MK1775] (first compound 0.8 µM, partner dose 0.02 µM) | 78.2% | 68.2% | 92.4% | 90.4% | 102% | 106% | 90.8% | 97.5% | 103% |
| OCc1c[nH]c2ccccc12 [Indole-3-carbinol] + O=C(CCCCCCC(=O)Nc1ccccc1)NO [vorinostat] (first compound 0.8 µM, partner dose 0.08 µM) | 107% | 88.7% | 104% | 108% | 106% | 100% | 92.4% | 124% | 114% |
| C#Cc1cccc(Nc2ncnc3cc(OCCOC)c(OCCOC)cc23)c1 [erlotinib] + Cc1cc(N2CCOCC2)cc2[nH]c(-c3c(NC[C@@H](O)c4cccc(Cl)c4)cc[nH]c3=O)nc12 [BMS536924] (first compound 0.8 µM, partner dose 0.2 µM) | 62.8% | 53.9% | 101% | 88.1% | 86.8% | 97.7% | 85.8% | 88.4% | 80.1% |
| Nc1cccc2c1CN(C1CCC(=O)NC1=O)C2=O (stereo not given) [lenalidomide] + COc1cc2c(Oc3ccc4[nH]c(C)cc4c3F)ncnc2cc1OCCCN1CCCC1 [cediranib] (first compound 1 µM, partner dose 0.4 µM) | 89.6% | 78.3% | 88.1% | 95.5% | 92.8% | 91.6% | – | 82.9% | 93.9% |
| OCc1c[nH]c2ccccc12 [Indole-3-carbinol] + NC(=O)Nc1cc(-c2cccc(F)c2)sc1C(=O)N[C@H]1CCCNC1 [AZD7762] (first compound 0.8 µM, partner dose 0.02 µM) | 88.6% | 93.2% | 65% | 91% | 109% | 100% | 122% | 91.9% | 107% |
| COCC[n+]1c2c(n(Cc3cnccn3)c1C)C(=O)c1ccccc1C2=O + C=CCn1c(=O)c2cnc(Nc3ccc(N4CCN(C)CC4)cc3)nc2n1-c1cccc(C(C)(C)O)n1 [MK1775] (first compound 0.0004 µM, partner dose 0.02 µM) | 96.2% | 70.4% | 109% | 93.4% | 82.1% | 86% | 61.4% | 90.7% | 103% |
| OCc1c[nH]c2ccccc12 [Indole-3-carbinol] + COc1cc(N2CCC(N3CCN(C)CC3)CC2)ccc1Nc1ncc(Cl)c(Nc2ccccc2S(=O)(=O)C(C)C)n1 [NVP-TAE684] (first compound 0.8 µM, partner dose 0.08 µM) | 82.2% | 102% | 81.1% | 98.9% | 102% | 99.9% | 84.6% | 99.6% | 103% |
| O=C(CCCCCCC(=O)Nc1ccccc1)NO [vorinostat] + Cc1ccc(NC(=O)c2cccc(N(C)C)c2)cc1NC(=O)c1ccc(O)cc1 [ZM336372] (first compound 0.08 µM, partner dose 2 µM) | 113% | 126% | 92.7% | 91.2% | 77.9% | 96.5% | – | 87.2% | 76.4% |
| COCC[n+]1c2c(n(Cc3cnccn3)c1C)C(=O)c1ccccc1C2=O + O=C(O)c1ccc(-c2c[nH]c3ncc(-c4ccccc4)cc23)cc1C1CCCC1 [GSK650394] (first compound 0.0004 µM, partner dose 0.16 µM) | 102% | 96.5% | 99.7% | 96.4% | 89% | 62.6% | 73% | 246% | 92% |
| C#Cc1cccc(Nc2ncnc3cc(OCCOC)c(OCCOC)cc23)c1 [erlotinib] + Cc1ccc(NC(=O)c2cccc(N(C)C)c2)cc1NC(=O)c1ccc(O)cc1 [ZM336372] (first compound 0.8 µM, partner dose 2 µM) | 96.1% | 130% | 86.3% | 95.5% | 77% | 94.1% | 99.9% | 104% | 97.2% |
| Nc1cccc2c1CN(C1CCC(=O)NC1=O)C2=O (stereo not given) [lenalidomide] + CC(C)(C)c1cnc(CSc2cnc(NC(=O)C3CCNCC3)s2)o1 [SNS-032] (first compound 1 µM, partner dose 0.01 µM) | 101% | 69.1% | 94.5% | 97.1% | 105% | 95.4% | 101% | 71.6% | 92.4% |
| O=C(CCCCCCC(=O)Nc1ccccc1)NO [vorinostat] + OCCn1cc(-c2cnc3nnn(Cc4ccc5ncccc5c4)c3n2)cn1 [PF04217903] (first compound 0.08 µM, partner dose 1 µM) | 85.6% | 99.4% | 89.6% | 99.5% | 94.2% | 100% | – | 102% | 113% |
| Clc1ccc(Nc2nnc(Cc3ccncc3)c3ccccc23)cc1 [vatalanib] + COc1ccc(COc2ccc(Cc3cnc(N)nc3N)cc2OC)cc1 [GW2580] (first compound 2 µM, partner dose 1 µM) | 94.2% | 86.3% | 77.4% | 100% | 106% | 96.3% | 89.9% | 76.8% | 90.5% |
